{"source": "the supplement of paper PMC12067230", "note": "The data scatter; read single values as rough.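 Also: [psi-pin-] Saccharomyces cerevisiae expressing SupN fusions, induced by 100 µM Cu2SO4, selected 7 d at 30 °C without adenine and uracil, scored by deep sequencing of output versus input.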", "data": [{"experiment": "amyloid nucleation score relative to library mode (yeast Sup35 reporter selection) (log enrichment difference); higher = more amyloid nucleation", "settings": "random library (experiment): 1;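 active = nucleation score significantly above 0 at FDR 0.05; inactive = not significantly above 0 or absent from output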", "values": [{"sequence": "EASNCFAIRHFENKFAVETLICIPR", "amyloid nucleation score": "inactive"}, {"sequence": "EASNCFAIRHFENKFAVETLICIPSGNMFLLREA", "amyloid nucleation score": 4.85}, {"sequence": "EASNCFAIRHFENKFAVETLICIPYGQVGNNVPA", "amyloid nucleation score": "inactive"}, {"sequence": "EASNCFAIRHFENKFAVETLICIQCYLSSRLM", "amyloid nucleation score": "inactive"}, {"sequence": "EASNCFAIRHFENKFAVETLICIQEHESSRGISM", "amyloid nucleation score": "inactive"}, {"sequence": "EASNCFAIRHFENKFAVETLICIQRMCGNLDKVP", "amyloid nucleation score": "inactive"}, {"sequence": "EASNCFAIRHFENKFAVETLICIQRVCSPEARFR", "amyloid nucleation score": "inactive"}, {"sequence": "EASNCFAIRHFENKFAVETLICIQVIPMRIRCNS", "amyloid nucleation score": "inactive"}, {"sequence": "EASNCFAIRHFENKFAVETLICIRAVKVLARG", "amyloid nucleation score": "inactive"}, {"sequence": "EASNCFAIRHFENKFAVETLICIRCDR", "amyloid nucleation score": "inactive"}, {"sequence": "EASNCFAIRHFENKFAVETLICIRCEPELTLSRA", "amyloid nucleation score": "inactive"}, {"sequence": "EASNCFAIRHFENKFAVETLICIRDRGTMVWLSG", "amyloid nucleation score": "inactive"}, {"sequence": "EASNCFAIRHFENKFAVETLICIREGLVGSGWVR", "amyloid nucleation score": "inactive"}, {"sequence": "EASNCFAIRHFENKFAVETLICIRENVPVAQSRE", "amyloid nucleation score": 0.262}, {"sequence": "EASNCFAIRHFENKFAVETLICIRHACMVTPWEY", "amyloid nucleation score": "inactive"}, {"sequence": "EASNCFAIRHFENKFAVETLICIRIDTTTTIIFG", "amyloid nucleation score": "inactive"}, {"sequence": "EASNCFAIRHFENKFAVETLICIRL", "amyloid nucleation score": -0.0194}, {"sequence": "EASNCFAIRHFENKFAVETLICIRLVCVMVLMVK", "amyloid nucleation score": "inactive"}, {"sequence": "EASNCFAIRHFENKFAVETLICIRLWLFAARVWT", "amyloid nucleation score": "inactive"}, {"sequence": "EASNCFAIRHFENKFAVETLICIRNCCMLGNVVG", "amyloid nucleation score": "inactive"}, {"sequence": "EASNCFAIRHFENKFAVETLICIRPPHGSELLQE", "amyloid nucleation score": "inactive"}]}, {"experiment": "amyloid nucleation score relative to library mode (yeast Sup35 reporter selection) (log enrichment difference); higher = more amyloid nucleation", "settings": "random library (experiment): 2", "values": [{"sequence": "EASNCFAIRHFENKFAVETLICIPLHSFYVNCDE", "amyloid nucleation score": 3.28}, {"sequence": "EASNCFAIRHFENKFAVETLICIPMQCAVVMQ", "amyloid nucleation score": 5.17}, {"sequence": "EASNCFAIRHFENKFAVETLICIPVFWMKVKFSS", "amyloid nucleation score": 3.14}, {"sequence": "EASNCFAIRHFENKFAVETLICIPVPGEVSIYWW", "amyloid nucleation score": "inactive"}, {"sequence": "EASNCFAIRHFENKFAVETLICIPYYLTTDPVKR", "amyloid nucleation score": 0}, {"sequence": "EASNCFAIRHFENKFAVETLICIQGIVDFTDSEI", "amyloid nucleation score": 1.77}, {"sequence": "EASNCFAIRHFENKFAVETLICIQSKRSPFLVRH", "amyloid nucleation score": 2.96}, {"sequence": "EASNCFAIRHFENKFAVETLICIQVTQCSKCMDD", "amyloid nucleation score": 7.35}, {"sequence": "EASNCFAIRHFENKFAVETLICIR", "amyloid nucleation score": "inactive"}, {"sequence": "EASNCFAIRHFENKFAVETLICIRALGQVGRGRW", "amyloid nucleation score": 1.3}, {"sequence": "EASNCFAIRHFENKFAVETLICIRESRYVQGRVY", "amyloid nucleation score": "inactive"}, {"sequence": "EASNCFAIRHFENKFAVETLICIRGYTFVWFTAW", "amyloid nucleation score": "inactive"}, {"sequence": "EASNCFAIRHFENKFAVETLICIRHFQRYDGFIP", "amyloid nucleation score": 5.68}, {"sequence": "EASNCFAIRHFENKFAVETLICIRHNTFLYRNAG", "amyloid nucleation score": 4.74}, {"sequence": "EASNCFAIRHFENKFAVETLICIRHWVYFRWGFK", "amyloid nucleation score": "inactive"}, {"sequence": "EASNCFAIRHFENKFAVETLICIRITADWQSFIF", "amyloid nucleation score": "inactive"}, {"sequence": "EASNCFAIRHFENKFAVETLICIRLSCFEYSMSR", "amyloid nucleation score": 3.63}, {"sequence": "EASNCFAIRHFENKFAVETLICIRPR", "amyloid nucleation score": "inactive"}, {"sequence": "EASNCFAIRHFENKFAVETLICIRPVFSLVDHLY", "amyloid nucleation score": "inactive"}]}, {"experiment": "amyloid nucleation score relative to library mode (yeast Sup35 reporter selection) (log enrichment difference); higher = more amyloid nucleation; sequences are the first 22 residues of the Bri2 peptide extended by up to 12 random residues", "settings": "random library (experiment): 3", "values": [{"sequence": "EASNCFAIRHFENKFAVETLICIPRNFFQLWRGR", "amyloid nucleation score": 1.16}, {"sequence": "EASNCFAIRHFENKFAVETLICIPSNIWPQDTFY", "amyloid nucleation score": 4.7}, {"sequence": "EASNCFAIRHFENKFAVETLICIQTMYRVRCSGF", "amyloid nucleation score": 3.81}, {"sequence": "EASNCFAIRHFENKFAVETLICIRF", "amyloid nucleation score": 5.15}, {"sequence": "EASNCFAIRHFENKFAVETLICIRGFES", "amyloid nucleation score": "inactive"}, {"sequence": "EASNCFAIRHFENKFAVETLICIRLLQWVGSETA", "amyloid nucleation score": "inactive"}, {"sequence": "EASNCFAIRHFENKFAVETLICIRMWVIGRSYSV", "amyloid nucleation score": 2.41}]}]}
